# According to PubChem BioAssay AID686978 (National Center for Advancing Translational Sciences (NCATS), 2013):
# In all, about 420,000 compounds went through this assay and about 64,000 (15%) were called active. The inconclusive results got no clear call from the source; some entries with a clear call stand among them for comparison. Calls come from the whole dose curve; as a rule, active = well fitted inhibition curve with a large enough effect; inconclusive = small, poorly fitted or top-dose-only effect; inactive = flat fitted curve, though single readings scatter. Potencies of inconclusive entries are left out as doubtful fits.
# Assay: qHTS for Inhibitors of human tyrosyl-DNA phosphodiesterase 1 (TDP1): qHTS in cells in absence of CPT; note: nearly all actives have a fitted effect of over 55% in size
# Conditions: DT40 Tdp1-/- hTDP1 cells, no CPT, ATP luminescence, 48 h; activity change, negative = growth inhibition: at 46.2 µM (top of the series) unless noted
# Procedure, shortened: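 Growth kinetics read by CellTiter-Glo luminescence after ≥48 hr at 37 °C. Cells: DT40 Tdp1-/- stably carrying human TDP1, 400 per well, compound exposure in the absence of CPT (DMSO vehicle).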
# % is set by controls: 0 for no effect and ±100 for the full control effect; potency is the fitted concentration of half-maximal effect; tags give direction and shape of the fitted curve.
Structure (SMILES),"activity change, negative = growth inhibition",Potency
CCOC(=O)c1oc2cccc(O)c2c1CN(Cc1ccccc1)C(C)=O,inconclusive: -32.5% [inhibitor],–
CC1=Nc2ccccc2/C1=C/c1c(C)[nH]c2ccccc12,–,active: 16.4 µM
CC1(C)CC2CC(C)(CN2C(=O)COC(=O)CNC(=O)c2ccc(Cl)c(Cl)c2)C1 (centres undefined),inconclusive: -30.5% [inhibitor],–
CCOC(=O)c1cc(Br)c(=O)n2ccccc12,–,"inconclusive [inhibitor, single point]"
COc1ccc(CNC(=O)CN(c2ccc(OC)cc2)S(=O)(=O)c2c(C)nn(C)c2C)cc1,–,"inconclusive [inhibitor, single point]"
CCc1ccc(Nc2nnc(SCC(=O)Nc3sccc3C(N)=O)s2)cc1,–,"inconclusive [inhibitor, single point]"
CN1CCSc2ccc(C(=O)NCc3ccccc3F)cc21,–,"inconclusive [inhibitor, single point]"
Cc1ccc(/C=C2/SC(=S)N(CCC(=O)N3CCOCC3)C2=O)cc1,–,active: 16.4 µM
CCOC(=O)c1ccc(NC(=O)N2CCN(c3cccc(OC)c3)CC2)cc1,–,active: 18.4 µM
COC(=O)c1c(C)sc(-c2c(-c3ccc4c(c3)OCCO4)[nH]c3[nH]c(=O)[nH]c(=O)c23)c1O,inactive: -4.51%,–
N#CC1=C2SCN(c3ccc(F)cc3)CN2C(=O)CC1c1cccc(F)c1 (centres undefined),inactive: -10.6%,–
CCOc1ccc(-c2cc3nc(C4CCN(C(=O)OC(C)(C)C)CC4)c(C(=O)Nc4ccc(C)cc4Cl)cn3n2)cc1,–,"inconclusive [inhibitor, single point]"
O=C1/C(=C\c2ccc(O)cc2)SC(=S)N1/N=C/c1ccc(O)cc1,inactive: -1.41%,–
O=C(c1cc2ccccc2o1)N1CCN(C/C=C/c2ccccc2)CC1,–,"inconclusive [inhibitor, single point]"
CN(C)S(=O)(=O)c1ccc(C(=O)OCn2nnc3ccccc3c2=O)cc1,–,"inconclusive [inhibitor, single point]"
CCCCCC1(C(=O)OCC)CC(CSC(=N)N)OC1=O (centres undefined),–,active: 16.4 µM
CCOc1ccccc1OCCCC(=O)N1CCN(S(=O)(=O)c2cc(F)ccc2F)CC1,–,"inconclusive [inhibitor, single point]"
O=C(CSc1nnnn1C1CCCC1)Nc1ccccc1N1CCOCC1,–,"inconclusive [inhibitor, partial curve]"
Cc1ccc(N(CC(=O)NCc2ccccc2)S(=O)(=O)c2c(C)noc2C)cc1,–,"inconclusive [inhibitor, partial curve, poor fit]"
